Consider 90 compounds from PubChem BioAssay AID463173 (ICCB-Longwood Screening Facility, Harvard Medical School, 2010).

SMILES strings stand for the structures. Out of some 52,000 compounds screened, about 1,700 (3.3%) were called active. Cut-off read from the data, not from the text of the source: active = survival mostly below about 52% (no sharp cut-off); inactive = mostly above about 56%. The list shows a part of the results.

The assay deals with Wild type. The assay is described as follows: growth inhibition of S. aureus wild type versus tarO mutant, primary screen, teichoic acid synthesis inhibitors, RN4220, OD600 (AID 463173). The note with it: S. aureus RN4220 wild type/DeltatarO growth, OD600, 18 h, hits give low values, screened at 18.75 µg/mL (by protocol).
As to `N#Cc1c(SCC(=O)Nc2nccs2)nc(N2CCOCC2)c2c1CCCC2`, the survival is inactive: 113%.

As to `Cc1cccc(OCCCCn2nnc3sc4c(c3c2=O)CCC(C)C4)c1` (stereo not given), the survival is inactive: 84%.

For the compound `O=C(Cn1nc(N2CCN(c3ccccc3)CC2)ccc1=O)NCc1cccc(Cl)c1`, the survival is inactive: 129%.

As for `Cc1nc2nc(SCC(=O)NCc3ccccc3)nn2c(C)c1Cc1ccccc1Cl`, the survival is inactive: 128%.

As to `O=C(COc1ccccc1)Nc1ccc(C(=O)OCc2cc(=O)n3nc(C4CC4)sc3n2)cc1`, the survival is inactive: 64%.

Regarding `Cc1ccc(OCCSc2nc3ccc(NC(=O)COc4ccc(F)cc4)cc3s2)cc1`, the survival is inactive: 95%.

With `CCN(CC)CCNC(=O)C1CCN(S(=O)(=O)c2c(C)noc2/C=C/c2ccccc2F)CC1`, the survival was inactive: 102%.

Regarding `COc1ccc(-n2c(/C=C/c3cc(OC)c(OC)cc3OC)nc3cc4ccccc4cc3c2=O)cc1Cl`, the survival was inactive: 115%.

For `CCc1cccc(C)c1NC(=O)CN1CCCN(Cc2ccc(C)cc2)S1(=O)=O`, the survival is active: 0%.

For `COc1ccc(-c2c(C)nn3c(C(F)(F)F)cc(-c4ccc(Br)cc4)nc23)cc1`, the survival is inactive: 96%.

As for `O=C(Cc1cccs1)NC1CC(=O)N(c2ccccc2)C1` (stereo not given), the survival was inactive: 78%.

As to `CCOC(=O)c1cc(-c2ccc(F)cc2)n(CC(=O)NC2CCCCC2)c1C`, the survival was inactive: 65%.

Take `Cc1cc(C)n2c(Nc3c(C)cccc3C)c(-c3ccsc3)nc2n1`: the survival is inactive: 76%.

Turning to `O=C(CN1CCCN(Cc2ccccc2Cl)S1(=O)=O)Nc1ccc2c(c1)OCCO2`, the survival is inactive: 60%.

As for `CCOc1ccc(-c2ccc(NS(=O)(=O)c3cc(C)c(C)cc3C)cc2)nn1`, the survival was inactive: 78%.

With `CCCOc1ccc(/C=N/NC(=O)CN2CCCCC2)cc1`, the survival is inactive: 103%.

Regarding `CCN(C(=O)COc1cc(=O)n(C)c2ccccc12)c1cccc(C(F)(F)F)c1`, the survival was inactive: 72%.

For `Cc1ccccc1CN1CCc2nc(Nc3ccc4c(c3)OCCO4)ncc2C1`, the survival is inactive: 93%.

For `O=C(O)Cn1c2ccccc2c2n[nH]c(=S)nc21`, the survival was inactive: 106%.

`O=C(c1cc2c(=O)[nH]c3ccccc3c2s1)N1CCN(c2ccc(F)cc2)CC1`: the survival is inactive: 61%.

For `CC(NC(=O)CCn1c(=O)c2cccn2c2ccc(F)cc21)c1ccccc1` (stereo not given), the survival is inactive: 97%.

Take `CCOc1ccc(C(=O)Nc2ccc(-c3nc4cc(CC)ccc4o3)cc2)cc1`: the survival was inactive: 79%.

Regarding `COc1cccc(NC(=O)c2oc3ccccc3c2NC(=O)C23CC4CC(CC(C4)C2)C3)c1`, the survival is inactive: 73%.

In the case of `COc1ccc(CN2COc3ccc4c(C)cc(=O)oc4c3C2)cc1`, the survival is inactive: 72%.

Turning to `COc1cccc2c1Oc1nc(-c3ccccc3)nc(SCC(=O)N3CCCCC3)c1C2`, the survival is inactive: 113%.

Regarding `CCN(CC)C(=O)CSc1nc2ccccc2c(=O)n1CC`, the survival was inactive: 107%.

Turning to `CCn1c2ccccc2c2cc(C3C(C#N)=C(N)Oc4n[nH]c(C(C)C)c43)ccc21` (stereo not given), the survival is inactive: 82%.

With `COc1ccccc1NC(=O)Cn1c(=O)n(Cc2ccccc2)c(=O)c2ccccc21`, the survival was inactive: 64%.

In the case of `COC(=O)c1ccc(NC(=O)Nc2nnc(N(C)C3CCCCC3)s2)cc1`, the survival is inactive: 86%.

Take `CCCOc1ccc(Nc2nc(SC)ncc2C(=O)OCC)cc1`: the survival was inactive: 86%.

For the compound `O=C(CCn1c(=O)c2cccn2c2ccc(F)cc21)NCCc1ccccc1Cl`, the survival was inactive: 60%.

With `Cc1coc2c(C)c3oc(=O)c(CC(=O)N4CCCCC4)c(C)c3cc12`, the survival was inactive: 83%.

Turning to `COc1ccc(-c2nc3nc(C)cc(Nc4ccc(C(C)=O)cc4)n3n2)cc1`, the survival is inactive: 92%.

Consider `Cc1cc(C)cc(-n2c(SCC(=O)Nc3nnc(C)s3)nc3c([nH]c4ccccc43)c2=O)c1`, for which the survival was inactive: 74%.

`COC(=O)c1ccc(NC(=O)Cc2coc3cc(C)ccc23)cc1`: the survival was inactive: 106%.

Regarding `COC(=O)CSc1nnc2n1C(C)(C)Cc1ccccc1-2`, the survival is inactive: 99%.

Regarding `COc1ccccc1-c1ccnc2[nH]n(-c3ccccc3)c(=O)c12`, the survival was inactive: 62%.

Regarding `CCOc1ccc(C2C(=O)N(C3CCCCCC3)CC(=O)N2CCc2ccccc2)cc1OC` (stereo not given), the survival was inactive: 75%.

In the case of `COc1ccc(Cn2ccnc2SCC(=O)NCc2ccccc2)cc1`, the survival was inactive: 72%.

`CCC1CCCCN1C(=O)c1nn(-c2ccc(C)cc2)c(=O)c2c1c1ccccc1n2C` (stereo not given): the survival was inactive: 86%.

Regarding `CCOc1ccc(CCNC(=O)c2cnc3sc(N4CCOCC4)nn3c2=O)cc1`, the survival is inactive: 80%.

With `Cc1ccc(C)c(S(=O)(=O)NCC(c2ccco2)S(=O)(=O)c2ccc(F)cc2)c1` (stereo not given), the survival is inactive: 130%.

Consider `COc1cccc(C2C3=C(CCCC3=O)N(C)C3=C2C(=O)CCC3)c1`, for which the survival was inactive: 107%.

As to `Cc1cccc(C=Nc2ccc(-c3nc4ccccc4o3)cc2)c1O`, the survival is inactive: 122%.

On to `CCOc1ccc(C(=O)Nc2ccc(S(=O)(=O)N3CCCCC3c3cccnc3)cc2)cc1` (stereo not given), for which the survival is inactive: 73%.

As to `CCc1cccc(C)c1NC(=O)Cn1c(=O)cc(C(F)(F)F)c2c(C)nn(C)c21`, the survival is inactive: 80%.

Consider `Cc1cccc(N2CCN(c3nc4ccccc4c(=O)n3-c3ccc(Cl)cc3)CC2)c1C`, for which the survival was inactive: 87%.

As to `Cc1noc(C)c1S(=O)(=O)N(CC(=O)NCc1ccccc1Cl)c1ccc(C(C)C)cc1`, the survival was inactive: 82%.

Regarding `O=C(Nc1ccc(F)cc1F)c1c2c(nc3ccccc13)C(=O)N(C1CCCCC1)C2`, the survival was inactive: 71%.

Turning to `Cc1ccc(N2CCN(C(=O)c3ccc4c(Cl)c5c(nc4c3)CCCC5)CC2)c(C)c1`, the survival was inactive: 94%.

Consider `O=C(Nc1c(-c2ccccc2)nc2ccccn12)c1ccc(Br)cc1`, for which the survival was inactive: 56%.

Turning to `O=C(CSc1nc2c([nH]c3ccccc32)c(=O)n1-c1ccccc1)c1ccccc1`, the survival was inactive: 73%.

As to `COc1ccc(OC)c(NC(=O)c2ccc(CSc3nnnn3C)cc2)c1`, the survival was inactive: 96%.

For `O=C(NCc1cccs1)C1CCN(C(=O)N2CCOc3ccccc32)CC1`, the survival is inactive: 107%.

On to `Cc1ccc(N(CC(=O)N2CCN(c3ccc(Cl)cc3)CC2)S(=O)(=O)c2c(C)noc2C)cc1`, for which the survival was inactive: 82%.

Take `CCOC(=O)c1cc(OC(=O)c2ccc(Cl)cc2)n(-c2ccccc2)n1`: the survival was inactive: 71%.

On to `COc1ccc(C2C(=O)N(C3CCCCC3)CC(=O)N2Cc2ccccc2Cl)cc1OC` (stereo not given), for which the survival was inactive: 127%.

With `COc1ccc(-c2nn(CC(=O)Nc3ccccc3F)c3c2cnc2ccc(F)cc23)cc1`, the survival was inactive: 88%.

In the case of `O=c1[nH]ncc(NCCc2ccccc2)c1Cl`, the survival is inactive: 109%.

In the case of `CCc1ccc(-n2nc(C)c3c(C(=O)NCCc4ccc(OC)c(OC)c4)cc(C)nc32)cc1`, the survival was inactive: 71%.

As to `COc1ccc(CN2COc3ccc4c(-c5ccc(OC)cc5)cc(=O)oc4c3C2)cc1`, the survival was inactive: 95%.

Regarding `CC(=O)Nc1ccc(Nc2ccccc2)cc1`, the survival is inactive: 97%.

In the case of `COc1ccc2c(=O)c(NC(=O)NCCCN3CCCC3=O)c[nH]c2c1`, the survival was inactive: 113%.

As for `COc1ccc(N2CCN(S(=O)(=O)CCNC(=O)c3ccc(C(F)(F)F)cc3)CC2)cc1`, the survival is inactive: 125%.

Regarding `Cc1ccc(-c2nc(S(=O)(=O)c3ccc(C)cc3)c(N3CCN(c4ccccc4)CC3)o2)cc1`, the survival was inactive: 104%.

Take `Cc1ccc(C)c(N2CCN(CCCNC(=O)Cn3ncc4c([nH]c5ccccc54)c3=O)CC2)c1`: the survival is inactive: 75%.

Take `COc1ccc(CNC(=O)Cn2ncn3nc(-c4cccs4)cc3c2=O)cc1`: the survival is inactive: 83%.

For the compound `CC(=O)NC1C(Oc2ccccc2C)OC2COC(C)(C)OC2C1O` (stereo not given), the survival was inactive: 101%.

As to `CCOC(=O)c1ccc(NC(=O)CCS(=O)(=O)c2ccc3c(c2)oc(=O)n3C)cc1`, the survival is inactive: 69%.

With `CCc1ccccc1N(CC(=O)N1CCc2ccccc2C1)S(C)(=O)=O`, the survival was inactive: 107%.

Regarding `CCCCCn1c(=O)[nH]c2cc(C(=O)NCc3ccc(OC)cc3)ccc2c1=O`, the survival was inactive: 91%.

For the compound `CCc1ccc(NC(=O)C(CC)n2nnc(C(=O)OC)c2C(=O)OC)cc1` (stereo not given), the survival is active: -1%.

On to `CCOc1ccc(-n2nc3cc(C)c(NC(=O)CC)cc3n2)cc1`, for which the survival is inactive: 72%.

On to `COc1ccc(C2NC(=O)c3c(sc4c3CCN(C)C4)N2)cc1O` (stereo not given), for which the survival is inactive: 68%.

Take `CCCNc1nc(NCc2ccccc2OC)c2cnn(C)c2n1`: the survival was inactive: 74%.

Take `CCN(CCCNC(=O)c1cc2c(=O)[nH]c3ccc(C)cc3c2s1)c1ccc(C)cc1`: the survival is inactive: 64%.

Turning to `CCCCN(CCCC)CCNC(=O)CN1C(=O)CSc2ccc(S(=O)(=O)N3CCCCC3)cc21`, the survival is inactive: 110%.

With `Cc1cccc(CN2C(=O)CC(c3ccc(Cl)cc3)c3c(C)nn(-c4nc(C)cc(C)n4)c32)c1` (stereo not given), the survival is inactive: 76%.

As to `COc1ccccc1N(CC(=O)Nc1ccccc1F)S(C)(=O)=O`, the survival is inactive: 74%.

Consider `Cc1cccc(N2CCN(C(=O)C3CCN(S(=O)(=O)c4cn(C)cn4)CC3)CC2)c1C`, for which the survival was inactive: 79%.

Take `COc1ccccc1NC(=O)CN1C(=O)c2cccc3cccc1c23`: the survival was inactive: 58%.

As for `Cc1ccc(Cl)cc1N1CCN(S(=O)(=O)c2ccc3[nH]c4c(c3c2)CCCC4)CC1`, the survival was inactive: 81%.

As to `Cc1ccc(NC(=O)N2CCN(c3nnc(C)c4c(C)n(-c5ccccc5)nc34)CC2)cc1Cl`, the survival was inactive: 71%.

Regarding `CCCN1C(=O)c2ccccc2CC1(C)C(=O)NC1CCCCC1` (stereo not given), the survival is inactive: 85%.

With `Cc1ccc(Cl)cc1Nc1nn2c(=O)c3ccc(C(=O)NCc4cccs4)cc3nc2s1`, the survival is inactive: 131%.

On to `COc1ccccc1NC(=O)C1CCN(S(=O)(=O)c2ccc3c(c2)oc(=O)n3C)CC1`, for which the survival was inactive: 86%.

Consider `CCOCCCn1c(SCC(=O)Nc2cccc(OC)c2)nc2ccccc2c1=O`, for which the survival was inactive: 89%.

In the case of `COc1cccc(C(=O)NCC(=O)NN)c1`, the survival was inactive: 106%.

Consider `CCC(CO)Nc1ncnc2c1cnn2-c1ccc(C)cc1` (stereo not given), for which the survival is active: -6%.

Take `CCOc1ccccc1CNC(=O)c1cnc2sc(N3CCCC3)nn2c1=O`: the survival was inactive: 138%.
